What is called GI50 is the concentration at which growth is held to half of that of the control.

The structures appear in SMILES notation.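 Method: 48-hour compound exposure of cells in 96-well plates, five concentrations, linear interpolation of endpoints. GI50 is the concentration that inhibits growth by half.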 Activity calls are given as the source filed them. Cut-off read from the data, not from the text of the source: active = GI50 up to about 1.1 µM and inactive = higher. Where only a bound is given, the exact number is not on record here.

This is an account of results in ChEMBL document CHEMBL1201862, “PubChem BioAssay data set” (2004).

This experiment concerns NCI-H322M. The experiment can be described thus: DTP human tumour cell line panel, 48 h.
Turning to `O=C1c2cccnc2-c2nccc3c2c1nc1cc(Br)ccc13`, the GI50 is active: 0.0776 µM.
The value for `CCOc1ccc2c(c1)/C(=C(\C(Cl)=C(Cl)Cl)[N+](=O)[O-])N2` was inactive: > 100 µM; that for `Cc1ccc(-c2nc3cc([N+](=O)[O-])ccc3[nH]2)cc1` was inactive: > 100 µM.
The figure for `c1ccc(C[N+]23CN4CN(CN(C4)C2)C3)cc1` is inactive: > 100 µM.
For `CC#CCOC(=O)c1ccccc1OC(C)=O`, the GI50 is inactive: > 100 µM.
For `CNC(=O)OCc1cnc([N+](=O)[O-])n1C`, the GI50 was inactive: > 100 µM.
As for `Cc1c(CN2CCOCC2)c(CN2CCOCC2)c(C)n1-c1ccc(Cl)cn1`, the GI50 is inactive: > 100 µM.
In the case of `O=C1C(Cl)N(c2ccc(Cl)cc2Cl)C1c1c[nH]c2ccccc12` (configuration not stated), the GI50 was inactive: > 100 µM.
The figure for `NCC1OC(n2cnc3c(N)ncnc32)CC1O` (configuration not stated) is inactive: > 100 µM; for `O=C(O)CC[C@H](NC(=O)c1ccc(-n2nc3ccc(=O)cc-3[nH]c2=O)cc1)C(=O)O` it is inactive: > 100 µM.
`Cc1cc(NS(=O)(=O)c2ccc(NC(NC(=O)OC(C)C)(C(F)(F)F)C(F)(F)F)cc2)nc(C)n1`: the GI50 was inactive: > 100 µM.
The value for `CC(=O)OC(=C(C#N)C#N)c1nccnc1C(=O)O` was inactive: > 100 µM; that for `COc1ccc(C[C@]23CCC(=O)N2CCc2cc(OC)c(O)cc23)cc1O` was inactive: > 100 µM.
The figure for `O=c1oc2ccccc2c(Nc2ccc3c(c2)Oc2ccccc2O3)c1[N+](=O)[O-]` is inactive: 29.9 µM.
As to `S=c1nc(N2CCCCC2)ss1`, the GI50 is inactive: 78.9 µM.
On to `O=C(O)c1nc2ccccc2nc1NCc1ccc(F)cc1`, for which the GI50 was inactive: 39.1 µM.
On to `CN1CCN(Cc2ccc(C(=S)Nc3ccccc3)s2)CC1`, for which the GI50 is inactive: > 100 µM.
`CC12CC(c3ccccc3O1)C(C(=O)Nc1ccc(Cl)cc1Cl)C(=O)N2` (configuration not stated): the GI50 is inactive: 24.9 µM.
As for `O=[N+]([O-])/C(C(Cl)=C(Cl)Cl)=C(/Cl)Sc1ccccc1`, the GI50 is inactive: 17.3 µM.
With `CC(=O)c1ccc2c3c1[C@H]1O[C@H]1c1cccc(c1-3)[C@@H]1O[C@H]21`, the GI50 was inactive: 3.57 µM.
For the compound `CC(C)(SCc1ccccc1)C(N)C(=O)O` (configuration not stated), the GI50 was inactive: > 100 µM.
The value for `O=C1C(=Cc2ccco2)C(=O)C2CCCCC12` (configuration not stated) was inactive: > 100 µM; that for `CC(C)=CC(=O)Cc1nc2ccc([N+](=O)[O-])cc2[nH]c1=O` was inactive: > 100 µM; that for `OCC1OC2c3ccccc3COC2C1OCc1ccccc1` (configuration not stated) was inactive: > 100 µM.
`CC1=C[C@H]([C@H]2C=C(C)C(C(N)=O)=CN2Cc2c(Cl)cccc2Cl)N(Cc2c(Cl)cccc2Cl)C=C1C(N)=O`: the GI50 was inactive: > 75 µM.
The value for `CCC(=O)NC(Nc1cc(C)on1)(C(F)(F)F)C(F)(F)F` was inactive: > 100 µM; that for `Cc1cc(C)nc(NS(=O)(=O)c2ccc(Nc3c4ccccc4nc4c(C(=O)NC(CO)(CO)CO)cccc34)cc2)n1` was inactive: 35.5 µM; that for `CCOc1ccc(/N=N/C2C(=O)N(C(=O)CC(=O)Nc3ccc(Cl)cc3)N=C2C)cc1` (configuration not stated) was inactive: > 100 µM.
The figure for `COc1ccc(NC(=O)CC/C(CC(=O)c2ccco2)=N/NC(=O)C(N)=O)cc1` is inactive: > 100 µM; for `S=C(N1CCN(c2ccc(Cl)c(Cl)c2)CC1)N1CCN(c2ccc(Cl)c(Cl)c2)CC1` it is inactive: 13 µM; for `O=C(O)/C(=C/c1ccccc1)c1ccccc1` it is inactive: > 100 µM.
Regarding `COc1cc(/C=N/n2c(-c3ccccc3)nn(C(C)=O)c2=O)cc(OC)c1OC`, the GI50 was inactive: 1.87 µM.
For `O=C(c1ccccc1)c1c(-c2ccccc2)[nH]n(-c2ccc([N+](=O)[O-])cc2)c(=O)c1=O`, the GI50 is inactive: 57.1 µM.
The value for `COc1cc(/C=N/NC(=O)c2ccc(NC(C)=O)cc2OC)ccc1O` was inactive: 38.7 µM; that for `CCOC(=O)C(=O)Nc1nc2c(OCC)cccc2s1` was inactive: > 100 µM; that for `COC1=C(OC)C(=O)C(Cc2c(Cl)nc3sc(C)cn23)=C(C)C1=O` was inactive: 17 µM.
The value for `Cc1cc(O)ccc1C1(c2ccc(F)cc2)OC(=O)c2ccccc21` (configuration not stated) was inactive: 2.54 µM; that for `C/C(=N\c1ccc(N(C)C)cc1)c1ccccc1` was inactive: 47.2 µM.
The value for `CC(C)(C)c1ccc2c(c1)S(=O)(=O)Nc1ccccc1NS(=O)(=O)c1cc(C(C)(C)C)ccc1OCCOCCOCCO2` was inactive: > 100 µM; that for `COc1cc(C(=O)Oc2c(C(C)=O)sc3c2c(=O)n(-c2ccccc2)c(=S)n3-c2ccccc2)cc(OC)c1OC` was inactive: 23.7 µM.
Turning to `Cc1cccc2c(=O)cc(-c3ccccc3)[nH]c12`, the GI50 is inactive: 6.65 µM.
Take `O=C(N/N=C1\CCc2ccccc21)N/N=C1\CCc2ccccc21`: the GI50 was inactive: > 100 µM.
The figure for `CCOc1ccc(NC(=O)C(=O)C(C(=O)c2ccc3ccccc3c2)C2OC(=O)c3ccccc32)cc1` (configuration not stated) is inactive: 15.7 µM; for `Cc1ccc(P(c2ccc(C)cc2)c2ccc(C)cc2)cc1` it is inactive: 35.6 µM.
The value for `Cc1c(NC(=O)CCCl)c(=O)oc2c(C)c3occc(=O)c3cc12` was inactive: 97.3 µM; that for `CCc1cccc(C(C)C)c1NC(=O)C(=O)Nn1c(S)nc2ccccc2c1=O` was inactive: > 100 µM.
The figure for `COc1ccc(-c2c(N)n(-c3nc4ccccc4s3)c(=O)c3cc([N+](=O)[O-])ccc23)cc1` is inactive: 26.9 µM; for `COc1ccc(C(c2ccc3c(c2)OCO3)N2C(=O)CCC2C(=O)O)cc1` (configuration not stated) it is inactive: > 100 µM; for `Cc1ccc(C(C2C(=O)N(C)C(=O)N(C)C2=O)C(F)(F)C(=O)N(C)C)cc1` (configuration not stated) it is inactive: > 100 µM.
Turning to `O=C(O)CCC/N=C(\C(=N\CCCC(=O)O)c1ccccc1)c1ccccc1`, the GI50 is inactive: > 100 µM.
The value for `CCOC(=O)c1sc2c(C(=O)OCC)n3ccccc3c2c1N` was inactive: > 100 µM.
The figure for `O=CCC1CCCCC1` is inactive: > 100 µM.
Regarding `COC1=C(NC(C)=O)C(=O)c2nc3n(c2C1=O)CCC3`, the GI50 was inactive: 20.5 µM.
As for `COC(=O)NN=C1C(C)(C)C(=O)C1(C)C`, the GI50 was inactive: > 100 µM.
For the compound `Cc1cc(C2(O)C=C(C(C)(C)C)C(=O)C(C(C)(C)C)=C2)c(C)cc1C1(O)C=C(C(C)(C)C)C(=O)C(C(C)(C)C)=C1`, the GI50 was inactive: > 100 µM.
With `COc1cc2nc(Nc3cccc(Br)c3)nc(Nc3cccc(Br)c3)c2cc1OC`, the GI50 is inactive: 21.6 µM.
The value for `NC1(C(=O)O)CCC(C(=O)O)CC1` (configuration not stated) was inactive: > 100 µM; that for `COc1ccc2c(c1)c1c(n2CCN2CCOCC2)-c2cccc(OC)c2CC1` was inactive: 68.7 µM.
Regarding `CN/N=C(\C(=O)Nc1ccc([N+](=O)[O-])cc1[N+](=O)[O-])C1NC(=O)NC1=O` (configuration not stated), the GI50 was inactive: > 100 µM.
The figure for `N=c1[nH]cnc2c1nnn2C1C=CC(COS(N)(=O)=O)C1` (configuration not stated) is inactive: 20 µM; for `N#Cc1c(N)nc2c(c1-c1ccc(Br)cc1)CSc1ccccc1-2` it is inactive: > 100 µM; for `Cc1nc2n(c1/C=C1/C(=O)Nc3ccccc31)CCS2` it is inactive: 59 µM.
Consider `Clc1cc(-c2csc(Cl)c2)cs1`, for which the GI50 is inactive: > 100 µM.
The value for `OC1(C(F)(F)F)OCCN=C1C(F)(F)F` (configuration not stated) was inactive: > 100 µM.
For the compound `CNC(=O)NCCCCC(NC(=O)OCc1ccccc1)C(=O)OCc1ccccc1` (configuration not stated), the GI50 is inactive: 47.3 µM.
The figure for `O=c1[nH]c(=S)[nH]c2c(C3OC(CO)C(O)C3O)nsc12` (configuration not stated) is inactive: > 100 µM.
The value for `CCN1CN(c2ccccc2)C2(CCN(CC(CC3OCCO3)c3ccc(F)cc3)CC2)C1=O` (configuration not stated) was inactive: 3.74 µM; that for `CN1CCN(c2nc3ccccc3nc2C(=O)c2ccc(Cl)cc2)CC1` was inactive: 37.3 µM; that for `COc1cccc(NC(=O)CC(=O)N2NC(c3ccccc3)C(/N=N/c3cccc(C(=O)O)c3)C2=O)c1` (configuration not stated) was inactive: > 100 µM.
The value for `COc1ccc(C2=Cc3nc2c(-c2ccccc2)c2ccc([nH]2)c(-c2ccccc2)c2nc(c(-c4ccccc4)c4ccc([nH]4)c3-c3ccccc3)C=C2)cc1` was inactive: > 100 µM; that for `O=c1[nH]cnc2c1ncn2C1SC(CO)C(O)C1O` (configuration not stated) was inactive: > 100 µM.
For `CC(C)N(C(=O)C12C3(C(=O)OC(C)(C)C)C4C5(C#N)C3C1(C(=O)OC(C)(C)C)C5C42C(=O)OC(C)(C)C)C(C)C` (configuration not stated), the GI50 was inactive: > 100 µM.
Turning to `Oc1ccc2ccccc2c1/N=N/c1ccsc1`, the GI50 is inactive: > 100 µM.
The figure for `CC(=O)NC1CCC(NC(=O)OC(C)(C)C)C(NC(=O)OC(C)(C)C)C1` (configuration not stated) is inactive: > 100 µM; for `Cc1nc(=O)n2c(C)n[nH]c2c1C(=O)Nc1cc(Cl)cc(Cl)c1` it is inactive: > 100 µM; for `O=C1NC(=O)C2C1C1C=C3c4ccccc4N(c4ccccc4)C32[C@H]2C(=O)NC(=O)[C@@H]12` (some centres not stated) it is inactive: > 100 µM.
Turning to `COC(=O)c1cc(C(=CCC[C@H]2CC[C@@]3(C)C(CCC4C3CC[C@@]3(C)C4CC[C@@H]3C(C)CCCC(C)C)C2)c2cc(Cl)c(OC(=O)c3ccccc3)c(C(=O)OC)c2)cc(Cl)c1OC(=O)c1ccccc1` (some centres not stated), the GI50 is inactive: > 10 µM.
The value for `CC1(C)COC2=C(C1)C(=O)c1ccccc1C2=O` was inactive: 1.67 µM; that for `COC(=O)[C@@]12OC[C@]34[C@H]([C@@H](O)[C@@H]1O)[C@@]1(C)CC(=O)C(OC(C)=O)=C(C)[C@@H]1C[C@H]3OC(=O)[C@H](OC(=O)C=C(C)C)[C@@H]24` was inactive: 2.43 µM; that for `Cc1cc(Cl)ccc1Nc1sc(C(=O)c2cc3cc(Cl)ccc3o2)c(N)c1C#N` was inactive: 12.4 µM.
For the compound `Brc1cccc(/N=N/N2CCCC2)c1`, the GI50 is inactive: > 100 µM.
As for `CCCCCC(=O)Nc1[nH]cnc1C(N)=O`, the GI50 is inactive: > 100 µM.
